From the supplement of paper PMC12217912
This is one part of the list. Sequences were assembled here from the parent chain. Inactive controls read about 0.05.

B1: TEV protease; numbered along this chain (parent)
chain: MGESLFKGPRDYNPISSSICHLTNESDGHTTSLYGIGFGPFIITNKHLFRRNNGTLVVQSLHGVFKVKDTTTLQQHLVDGRDMIIIRMPKDFPPFPQKLKFREPQREERICLVTTNFQTKSMSSMVSDTSCTFPSGDGIFWKHWIQTKDGQCGSPLVSTRDGFIVGIHSASNFTNTNNYFTSVPKNFMELLTNQEAQQWVSGWRLNADSVLWGGHKVFMVKPEEPFQPVKEATQL

Variants of: B1
Assay: raw area under fraction-flipped curve 0-4 h after induction (AUC4h, not background-subtracted), DNA-recorder readout of cleavage of the substrate (dimensionless); higher = more cleavage of the substrate by the protease variant
Settings: temperature: 34 °C; time window: 0-4 h after rhamnose induction
Protocol: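 In vivo DNA recorder in E. coli TOP10(DE3) ΔrhaA at 34 °C. Each TEVp single-site mutant (parent TEVp 0) is paired with a single-site variant of the 7-mer TEVs (canonical ENLYFQ|S). The substrate sits between flexible linkers in a Bxb1-sfGFP-TEVs-SsrA fusion, so cleavage stabilises Bxb1 and speeds flipping of a recombination array, read by NGS. The value is the raw area under the fraction-flipped curve over 0-4 h after rhamnose induction (AUC4h), with ≥20 reads per time point. It is not background-subtracted; inactive controls average about 0.047.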
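Further: Bxb1 expression induced with 0.2% (w/v) L-rhamnose at OD600 near 0.5, cultures sampled hourly, flipped fraction per protease–substrate barcode pair counted by paired-end Illumina sequencing.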

| Variant | area with substrate ENLYFQA | area with substrate ENLYFQC | area with substrate ENLYFQF | area with substrate ENLYFQH | area with substrate ENLYFQK | area with substrate ENLYFQL | area with substrate ENLYFQN | area with substrate ENLYFQP | area with substrate ENLYFQR | area with substrate ENLYFQS | area with substrate ENLYFQY | area with substrate ENLYFQI | area with substrate ENLYFQM | area with substrate ENLYFQV | area with substrate ENLYFQT | area with substrate ENLYFQW | area with substrate ENLYFQD | area with substrate ENLYFQG | area with substrate ENLYFQQ | area with substrate ENLYFQE |
| --- | --- | --- | --- | --- | --- | --- | --- | --- | --- | --- | --- | --- | --- | --- | --- | --- | --- | --- | --- | --- |
| MGESLFKGPRDYNPISSSICHLTNESDGHTTSLYGIGFGPFIITNKHLFRRNNGTLVVQSLHGVFKVKDTTTLQQHLVDGRDMIIIRMPKDFPPFPQKLKFREPQREERICLVTTNFQTKSMSSMVSDTSCTFPSGDGIFWKHWIQTKDGQCGSPLVSTRDGFIVGIHSASNFTNTNNYFTSVPKNFMELLTNPEAQQWVSGWRLNADSVLWGGHKVFMVKPEEPFQPVKEATQL [Q194P] | 0.122 | 0.132 | 0.0693 | 0.102 | 0.0571 | 0.0554 | 0.0904 | 0.0745 | 0.0478 | 0.115 | 0.126 |  |  |  |  |  |  |  |  |  |
| MGESLFKGPRDYNPISSSICHLTNESDGHTTSLYGIGFGPFIITNKHLFRRNNGTLVVQSLHGVFKVKDTTTLQQHLVDGRDMIIIRMPKDFPPFPQKLKFREPQREERICLVTTNFQTKSMSSMVSDTSCTFPSGDGIFWKHWIQTKDGQCGSPLVSTRDGFIVGIHSASNFTNTNNYFTSVPKNFMELLTNEEAQQWVSGWRLNADSVLWGGHKVFMVKPEEPFQPVKEATQL [Q194E] | 0.0717 |  | 0.0886 | 0.101 | 0.0615 |  | 0.0883 |  | 0.0689 | 0.119 |  | 0.0589 | 0.0993 | 0.0609 |  |  |  |  |  |  |
| MGESLFKGPRDYNPISSSICHLTNESDGHTTSLYGIGFGPFIITNKHLFRRNNGTLVVQSLHGVFKVKDTTTLQQHLVDGRDMIIIRMPKDFPPFPQKLKFREPQREERICLVTTNFQTKSMSSMVSDTSCTFPSGDGIFWKHWIQTKDGQCGSPLVSTRDGFIVGIHSASNFTNTNNYFTSVPKNFYELLTNQEAQQWVSGWRLNADSVLWGGHKVFMVKPEEPFQPVKEATQL [M188Y] | 0.0853 |  | 0.0648 |  |  | 0.0542 | 0.0784 |  | 0.063 | 0.104 |  |  |  |  | 0.065 | 0.0745 |  |  |  |  |
| MGESLFKGPRDYNPISSSICHLTNESDGHTTSLYGIGFGPFIITNKHLFRRNNGTLVVQSLHGVFKVKDTTTLQQHLVDGRDMIIIRMPKDFPPFPQKLKFREPQREERICLVTTNFQTKSMSSMVSDTSCTFPSGDGIFWKHWIQTKDGQCGSPLVSTRDGFIVGIHSASNFTNTNNYFTSVPKNCMELLTNQEAQQWVSGWRLNADSVLWGGHKVFMVKPEEPFQPVKEATQL [F187C] | 0.0908 | 0.124 |  |  |  |  |  |  |  | 0.101 | 0.0562 |  | 0.0924 |  |  | 0.0537 |  |  |  |  |
| MGESLFKGPRDYNPISSSICHLTNESDGHTTSLYGIGFGPFIITNKHLFRRNNGTLVVQSLHGVFKVKDTTTLQQHLVDGRDMIIIRMPKDFPPFPQKLKFREPQREERICLVTTNFQTKSMSSMVSDTSCTFPSGDGIFWKHWIQTKDGQCGSPLVSTRDGFIVGIHSASNFTNTNNYFTSVPKNNMELLTNQEAQQWVSGWRLNADSVLWGGHKVFMVKPEEPFQPVKEATQL [F187N] | 0.0537 | 0.0487 | 0.0289 | 0.0574 | 0.0573 | 0.0646 | 0.0428 |  | 0.0567 | 0.0546 |  | 0.0515 | 0.0405 |  |  | 0.0573 | 0.0548 |  |  |  |
| MGESLFKGPRDYNPISSSICHLTNESDGHTTSLYGIGFGPFIITNKHLFRRNNGTLVVQSLHGVFKVKDTTTLQQHLVDGRDMIIIRMPKDFPPFPQKLKFREPQREERICLVTTNFQTKSMSSMVSDTSCTFPSGDGIFWKHWIQTKDGQCGSPLVSTRDGFIVGIHSASNFTNTNNYFTSVPKNFMEWLTNQEAQQWVSGWRLNADSVLWGGHKVFMVKPEEPFQPVKEATQL [L190W] | 0.0734 | 0.0757 |  | 0.0657 |  |  | 0.0532 | 0.0674 | 0.066 | 0.0823 |  | 0.0559 | 0.0729 |  | 0.0781 | 0.0839 |  | 0.0753 | 0.0826 |  |
| MGESLFKGPRDYNPISSSICHLTNESDGHTTSLYGIGFGPFIITNKHLFRRNNGTLVVQSLHGVFKVKDTTTLQQHLVDGRDMIIIRMPKDFPPFPQKLKFREPQREERICLVTTNFQTKSMSSMVSDTSCTFPSGDGIFWKHWIQTKDGQCGSPLVSTRDGFIVGIHSASNITNTNNYFTSVPKNFMELLTNQEAQQWVSGWRLNADSVLWGGHKVFMVKPEEPFQPVKEATQL [F173I] | 0.104 | 0.114 | 0.0669 | 0.0819 | 0.0601 | 0.0676 | 0.0737 | 0.0528 | 0.0563 | 0.104 |  |  |  | 0.056 | 0.0631 | 0.0753 | 0.074 |  |  | 0.0711 |
| MGESLFKGPRDYNPISSSICHLTNESDGHTTSLYGIGFGPFIITNKHLFRRNNGTLVVQSLHGVFKVKDTTTLQQHLVDGRDMIIIRMPKDFPPFPQKLKFREPQREERICLVTTNFQTKSMSSMVSDTSCTFPSGDGIFWKHWIQTKDGQCGSPLVSTRDGFIVGIHSASNSTNTNNYFTSVPKNFMELLTNQEAQQWVSGWRLNADSVLWGGHKVFMVKPEEPFQPVKEATQL [F173S] | 0.0729 |  |  |  | 0.0907 | 0.0574 |  | 0.0604 |  | 0.0898 |  | 0.0562 | 0.073 | 0.0657 | 0.0566 | 0.0638 | 0.0644 | 0.0681 |  |  |
| MGESLFKGPRDYNPISSSICHLTNESDGHTTSLYGIGFGPFIITNKHLFRRNNGTLVVQSLHGVFKVKDTTTLQQHLVDGRDMIIIRMPKDFPPFPQKLKFREPQREERICLVTTNFQTKSMSSMVSDTSCTFPSGDGIFWKHWIQTKDGQCGSPLVSTRDGFIVGIHSASNFTNTNNQFTSVPKNFMELLTNQEAQQWVSGWRLNADSVLWGGHKVFMVKPEEPFQPVKEATQL [Y179Q] | 0.0557 | 0.0654 | 0.0608 | 0.0697 | 0.0736 | 0.0535 | 0.068 |  | 0.0658 | 0.058 |  |  | 0.0492 |  | 0.063 | 0.0473 | 0.0556 | 0.0628 |  |  |
| MGESLFKGPRDYNPISSSICHLTNESDGHTTSLYGIGFGPFIITNKHLFRRNNGTLVVQSLHGVFKVKDTTTLQQHLVDGRDMIIIRMPKDFPPFPQKLKFREPQREERICLVTTNFQTKSMSSMVSDTSCTFPSGDGIFWKHWIQTKDGQCGSPLVSTRDGFIVGIHSASNFTNTNNYFTSVPFNFMELLTNQEAQQWVSGWRLNADSVLWGGHKVFMVKPEEPFQPVKEATQL [K185F] | 0.135 | 0.101 |  |  |  | 0.0661 | 0.12 | 0.0899 | 0.0788 | 0.106 | 0.0927 | 0.0667 | 0.0907 | 0.074 | 0.0563 | 0.0675 |  | 0.0753 |  |  |
